Measurements: article PMC4336329 (PLoS ONE, 2015)
In all, about 310,000 compounds went through this assay and about 14,000 (4.5%) showed an effect of 50% or more. Effects have a minus sign here. This is one part of the list.

Target: human ether-à-go-go-related gene (hERG) potassium channel (human, UniProt Q12809)
Test: primary screen, population patch clamp on CHO cells stably expressing hERG
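Also: peak tail current of the secondary pulse compared with the same well before compound.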

Chain of human ether-à-go-go-related gene (hERG) potassium channel (Q12809 whole entry, looked up): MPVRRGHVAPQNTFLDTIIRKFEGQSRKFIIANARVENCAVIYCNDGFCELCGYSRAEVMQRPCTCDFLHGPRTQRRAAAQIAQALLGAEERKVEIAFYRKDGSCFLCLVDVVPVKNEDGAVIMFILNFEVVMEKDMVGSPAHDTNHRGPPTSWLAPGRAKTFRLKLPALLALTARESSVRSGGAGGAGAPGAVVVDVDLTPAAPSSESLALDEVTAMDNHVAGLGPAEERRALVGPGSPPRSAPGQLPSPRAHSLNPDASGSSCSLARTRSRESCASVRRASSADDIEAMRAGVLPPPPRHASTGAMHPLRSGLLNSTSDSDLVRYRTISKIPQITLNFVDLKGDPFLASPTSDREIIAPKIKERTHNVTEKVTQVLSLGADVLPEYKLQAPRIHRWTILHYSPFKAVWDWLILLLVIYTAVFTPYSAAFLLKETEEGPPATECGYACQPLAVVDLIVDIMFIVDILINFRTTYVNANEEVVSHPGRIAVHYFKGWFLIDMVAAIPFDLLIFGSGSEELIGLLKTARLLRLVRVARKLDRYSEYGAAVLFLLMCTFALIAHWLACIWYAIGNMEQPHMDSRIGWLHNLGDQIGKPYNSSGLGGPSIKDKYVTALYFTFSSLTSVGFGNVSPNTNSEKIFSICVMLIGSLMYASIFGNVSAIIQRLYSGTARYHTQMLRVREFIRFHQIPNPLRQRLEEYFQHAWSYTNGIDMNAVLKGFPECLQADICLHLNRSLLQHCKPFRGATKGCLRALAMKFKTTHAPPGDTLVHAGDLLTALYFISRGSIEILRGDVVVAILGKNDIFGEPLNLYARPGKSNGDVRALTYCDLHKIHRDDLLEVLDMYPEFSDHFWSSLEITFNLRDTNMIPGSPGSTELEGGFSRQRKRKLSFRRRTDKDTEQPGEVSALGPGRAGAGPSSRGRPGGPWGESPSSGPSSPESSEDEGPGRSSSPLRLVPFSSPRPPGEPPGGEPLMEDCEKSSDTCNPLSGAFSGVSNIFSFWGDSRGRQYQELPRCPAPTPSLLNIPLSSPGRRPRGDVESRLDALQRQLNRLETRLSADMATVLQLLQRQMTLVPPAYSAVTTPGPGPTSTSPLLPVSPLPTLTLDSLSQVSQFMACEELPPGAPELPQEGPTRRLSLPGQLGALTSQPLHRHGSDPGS

Q: Which “hERG current change (%, negative = inhibition) at 10uM” value does the source give for CC1(C)CC2(C)Nc3ccccc3N2C(=S)N1 (stereo not drawn) here?
A: Its value is 3.92%.

Q: Which “hERG current change (%, negative = inhibition) at 10uM” value does the source give for Cc1cccc(C2NC(c3cccc(C)c3)C(C)C(=O)C2C)c1 (stereo not drawn) here?
A: The value was 8.92%.

Q: How did the “hERG current change (%, negative = inhibition) at 10uM” value turn out when Cc1cccc(Cc2c(C)[nH]c(=O)c(C#N)c2C)c1 was run?
A: The value was -3.26%.

Q: Which “hERG current change (%, negative = inhibition) at 10uM” value does the source give for Cc1cccc(NC(=S)N2CCN(S(=O)(=O)c3cccc(F)c3)CC2)c1 here?
A: Its value is -16%.

Q: How did the “hERG current change (%, negative = inhibition) at 10uM” value turn out when COc1ccc(Cc2nc3ccc(S(=O)(=O)N4CCOCC4)cc3[nH]2)cc1OC was run?
A: Its value is 19.7%.

Q: How did the “hERG current change (%, negative = inhibition) at 10uM” value turn out when CCOC(=O)C1=C(C)NC(=O)C(C(N)=O)C12CCCCC2 (stereo not drawn) was run?
A: Its value is 12.4%.

Q: With COc1ccc(C2NCCc3cc(OC)c(OC)cc32)cc1OC (stereo not drawn) as the compound, how does the “hERG current change (%, negative = inhibition) at 10uM” value read?
A: Its value is 9.57%.

Q: Which “hERG current change (%, negative = inhibition) at 10uM” value does the source give for Cc1cc2c(NCc3ccccc3)ncnc2s1.Cl here?
A: Its value is 0.0717%.

Q: Which “hERG current change (%, negative = inhibition) at 10uM” value does the source give for Cc1cc(C)cc(NC(=O)CSc2nc(=O)n3cc(C)ccc3n2)c1 here?
A: The value was -1.17%.

Q: CCCNC(=O)c1ccccc1C(=O)NCCC was tested. Which “hERG current change (%, negative = inhibition) at 10uM” value did it give?
A: Its value is -0.752%.

Q: O=C1c2ccccc2S(=O)(=O)N1CC1CC(c2ccccc2)=NO1 (stereo not drawn) was tested. Which “hERG current change (%, negative = inhibition) at 10uM” value did it give?
A: The value was -21.8%.

Q: How did the “hERG current change (%, negative = inhibition) at 10uM” value turn out when COc1cc2c(cc1OC)C(C)N(C(=O)/C=C/c1cc(OC)c(OC)c(OC)c1)CC2 (stereo not drawn) was run?
A: The value was 7.57%.

Q: Which “hERG current change (%, negative = inhibition) at 10uM” value does the source give for CCn1c(=O)c2cc(C(=O)N3CCOCC3)sc2c2ccccc21 here?
A: The value was -23.5%.

Q: With CCSc1nc2sc3c(c2c(=O)n1-c1ccccc1C)CCN(C)C3 as the compound, how does the “hERG current change (%, negative = inhibition) at 10uM” value read?
A: The value was 11.5%.

Q: With CCOc1[nH]n(-c2ccccc2)c(=O)c1C=NCc1cccnc1 as the compound, how does the “hERG current change (%, negative = inhibition) at 10uM” value read?
A: Its value is -48.8%.

Q: FC(F)(F)c1nnc2ccc(NCc3ccccc3)nn12 was tested. Which “hERG current change (%, negative = inhibition) at 10uM” value did it give?
A: Its value is 8.9%.

Q: CCOC(=O)N1CCN(C(=O)c2cc3c(=O)n(C)c4ccccc4c3n2C)CC1 was tested. Which “hERG current change (%, negative = inhibition) at 10uM” value did it give?
A: The value was -8.71%.

Q: How did the “hERG current change (%, negative = inhibition) at 10uM” value turn out when Nc1nc2ccccc2n1Cc1ccc(Cl)c(Cl)c1 was run?
A: The value was -10.2%.

Q: With COc1ccc(/C=c2\sc3nc(-c4ccccc4)c(-c4ccccc4)n3c2=O)cc1OC as the compound, how does the “hERG current change (%, negative = inhibition) at 10uM” value read?
A: Its value is 11.4%.

Q: Which “hERG current change (%, negative = inhibition) at 10uM” value does the source give for COc1cccc(NC(=O)NCc2ccc(F)cc2)c1 here?
A: Its value is -5.73%.

Q: O=C(c1ccccc1)N1CCCCCC1 was tested. Which “hERG current change (%, negative = inhibition) at 10uM” value did it give?
A: Its value is 29.1%.

Q: CCN(CCO)c1ccc(N=Cc2c(O)n(C)c(=S)[nH]c2=O)cc1 was tested. Which “hERG current change (%, negative = inhibition) at 10uM” value did it give?
A: The value was -1.04%.

Q: With Cc1ccc(S(=O)(=O)Nc2cc(C(=O)NCCN3CCCC3)ccc2N2CCCCC2)cc1 as the compound, how does the “hERG current change (%, negative = inhibition) at 10uM” value read?
A: Its value is -40.3%.

Q: With CCCc1ccc(S(=O)(=O)NCCc2ccncc2)cc1 as the compound, how does the “hERG current change (%, negative = inhibition) at 10uM” value read?
A: The value was -25.5%.

Q: How did the “hERG current change (%, negative = inhibition) at 10uM” value turn out when O=C(NC1CCCCCC1)c1nc2ncccn2n1 was run?
A: Its value is 16.7%.

Q: Which “hERG current change (%, negative = inhibition) at 10uM” value does the source give for COc1cc(C)nc(NS(=O)(=O)c2ccccc2Cl)n1 here?
A: The value was 12.7%.

Q: How did the “hERG current change (%, negative = inhibition) at 10uM” value turn out when Cc1cc(C=C2C(=O)CCCC2=O)c(C)n1-c1ccccc1 was run?
A: Its value is -12.5%.

Q: CCOC(=O)Cc1csc(NC(=O)COc2ccccc2OCC)n1 was tested. Which “hERG current change (%, negative = inhibition) at 10uM” value did it give?
A: The value was -24.2%.

Q: With COc1ccccc1N1CCN(S(=O)(=O)c2c(C)sc3ncn(CC(=O)NCCN(C)C)c(=O)c23)CC1 as the compound, how does the “hERG current change (%, negative = inhibition) at 10uM” value read?
A: The value was -1.05%.

Q: Oc1ccc(-c2nc(-c3ccc(F)cc3)c(-c3ccncc3)[nH]2)cc1 was tested. Which “hERG current change (%, negative = inhibition) at 10uM” value did it give?
A: Its value is -3.35%.

Q: COc1ccc(NC(=O)CSc2nc3cccnc3n2C)cc1 was tested. Which “hERG current change (%, negative = inhibition) at 10uM” value did it give?
A: Its value is -12.4%.

Q: How did the “hERG current change (%, negative = inhibition) at 10uM” value turn out when O=Cc1cn(-c2ccccc2)nc1-c1cc2c(ccc3ccccc32)oc1=O was run?
A: Its value is 3.09%.

Q: For CSc1ccccc1NC(=O)CN1CCN(S(=O)(=O)c2ccccc2[N+](=O)[O-])CC1, which “hERG current change (%, negative = inhibition) at 10uM” value is on record?
A: Its value is -52.2%.

Q: For COC(=O)c1ccc(/C=N/NC(=O)c2cccc(F)c2)cc1, which “hERG current change (%, negative = inhibition) at 10uM” value is on record?
A: Its value is 6.65%.

Q: With COc1ccccc1NS(=O)(=O)c1cccc(C(=O)N2CCN(Cc3ccc4c(c3)OCO4)CC2)c1 as the compound, how does the “hERG current change (%, negative = inhibition) at 10uM” value read?
A: The value was -61.4%.

Q: How did the “hERG current change (%, negative = inhibition) at 10uM” value turn out when CCCOc1ccc(C(O)(CCN2CCCCC2)c2ccccc2OC)cc1.Cl (stereo not drawn) was run?
A: Its value is -29.9%.

Q: How did the “hERG current change (%, negative = inhibition) at 10uM” value turn out when O=S(Cc1ccc(Br)cc1)Cc1nnc(SCc2ccc(Br)cc2)n1-c1ccccc1 (stereo not drawn) was run?
A: Its value is -2.14%.

Q: How did the “hERG current change (%, negative = inhibition) at 10uM” value turn out when Cc1ccc(OCC(=O)Nc2ccc(F)cc2)c([N+](=O)[O-])n1 was run?
A: The value was -9.47%.

Q: With CC1(C)Cc2c(c(N3CCOCC3)nc3sc4c(NCc5ccccc5)nnnc4c23)CS1 as the compound, how does the “hERG current change (%, negative = inhibition) at 10uM” value read?
A: Its value is -1.54%.

Q: For Cc1cc(N2CCN(C)CC2)ccc1NC(=O)c1c2c(nc3ccccc13)CCN(Cc1ccccc1)C2, which “hERG current change (%, negative = inhibition) at 10uM” value is on record?
A: The value was 11.1%.

Q: For CN1/C(=C\C(=O)Nc2cccc(Cl)c2)C(C)(C)c2ccccc21, which “hERG current change (%, negative = inhibition) at 10uM” value is on record?
A: Its value is 7.17%.

Q: How did the “hERG current change (%, negative = inhibition) at 10uM” value turn out when O=C(NCc1ccco1)C1CCCN(S(=O)(=O)c2cccc3nonc23)C1 (stereo not drawn) was run?
A: The value was -4.03%.

Q: With O=P(c1ccccc1)(c1ccccc1)C(O)c1ccncc1 (stereo not drawn) as the compound, how does the “hERG current change (%, negative = inhibition) at 10uM” value read?
A: Its value is 23.6%.

Q: For CCOC(=O)c1c(C)[nH]c(C(=O)NCCN2CCOCC2)c1C, which “hERG current change (%, negative = inhibition) at 10uM” value is on record?
A: Its value is 21.1%.

Q: For COc1ccc(-c2cc(C(=O)Nc3c(C)n(C)n(-c4ccccc4)c3=O)no2)cc1, which “hERG current change (%, negative = inhibition) at 10uM” value is on record?
A: The value was 6.42%.

Q: Which “hERG current change (%, negative = inhibition) at 10uM” value does the source give for COc1ccc(-c2c(C#N)c(SCC(N)=O)nc3c2CCCC3)cc1 here?
A: Its value is -2.24%.

Q: With COc1ccc(OC)c(NC(=O)CN2C(=O)CSc3ccc(S(=O)(=O)N4CCCC4)cc32)c1 as the compound, how does the “hERG current change (%, negative = inhibition) at 10uM” value read?
A: Its value is -1.42%.

Q: How did the “hERG current change (%, negative = inhibition) at 10uM” value turn out when NS(=O)(=O)c1cccc(NC(=O)CCN2C(=O)C3CCCCC3C2=O)c1 (stereo not drawn) was run?
A: The value was 6.41%.

Q: With CCCN1CCN(C(=S)Nc2sc(CC)cc2C(=O)OC)CC1 as the compound, how does the “hERG current change (%, negative = inhibition) at 10uM” value read?
A: Its value is -1.29%.

Q: CC1CC(C)CN(C(=O)CNS(=O)(=O)c2cccs2)C1 (stereo not drawn) was tested. Which “hERG current change (%, negative = inhibition) at 10uM” value did it give?
A: The value was 9.23%.

Q: How did the “hERG current change (%, negative = inhibition) at 10uM” value turn out when Cn1c(=NC(=O)CSCC(=O)N2CCCCC2)sc2ccccc21 was run?
A: The value was -11.3%.

Q: Which “hERG current change (%, negative = inhibition) at 10uM” value does the source give for CCC(C)CCN1C(Nc2ccccc2)=NC[C@@H]1C (stereo partly drawn) here?
A: The value was -4.88%.

Q: How did the “hERG current change (%, negative = inhibition) at 10uM” value turn out when CCOc1ccc(NC(=O)CN(C)C(=O)c2cn3ccccc3n2)cc1OCC was run?
A: Its value is -19.2%.

Q: Which “hERG current change (%, negative = inhibition) at 10uM” value does the source give for Cc1ccccc1NC(=O)CSc1ccc(-c2ccccn2)nn1 here?
A: Its value is -8.58%.

Q: For COC(=O)c1ccc(C(=O)OC)c(NC(=O)C2CC2)c1, which “hERG current change (%, negative = inhibition) at 10uM” value is on record?
A: Its value is -68.9%.

Q: O=C(CN1C(=O)C(=O)N(C2CCCC2)C1=O)NCCc1ccc(Cl)cc1Cl was tested. Which “hERG current change (%, negative = inhibition) at 10uM” value did it give?
A: The value was 10.4%.

Q: With CCOc1cc(N2CCOCC2)c(OCC)cc1NC(=O)COC(=O)[C@@H]1CCCN1S(=O)(=O)c1ccccc1F as the compound, how does the “hERG current change (%, negative = inhibition) at 10uM” value read?
A: The value was -24.2%.
